About 230 (0.21%) of roughly 110,000 compounds showed an effect of 50% or more. The list shows a part of the results.
What follows are compounds tested against DPAP1 (Plasmodium falciparum, UniProt Q8IIJ9) (assay: primary screen, percent inhibition; read by cleavage of a fluorogenic dipeptide substrate; higher = more effect of the substance).
DPAP1, sequence (Q8IIJ9 whole entry, looked up): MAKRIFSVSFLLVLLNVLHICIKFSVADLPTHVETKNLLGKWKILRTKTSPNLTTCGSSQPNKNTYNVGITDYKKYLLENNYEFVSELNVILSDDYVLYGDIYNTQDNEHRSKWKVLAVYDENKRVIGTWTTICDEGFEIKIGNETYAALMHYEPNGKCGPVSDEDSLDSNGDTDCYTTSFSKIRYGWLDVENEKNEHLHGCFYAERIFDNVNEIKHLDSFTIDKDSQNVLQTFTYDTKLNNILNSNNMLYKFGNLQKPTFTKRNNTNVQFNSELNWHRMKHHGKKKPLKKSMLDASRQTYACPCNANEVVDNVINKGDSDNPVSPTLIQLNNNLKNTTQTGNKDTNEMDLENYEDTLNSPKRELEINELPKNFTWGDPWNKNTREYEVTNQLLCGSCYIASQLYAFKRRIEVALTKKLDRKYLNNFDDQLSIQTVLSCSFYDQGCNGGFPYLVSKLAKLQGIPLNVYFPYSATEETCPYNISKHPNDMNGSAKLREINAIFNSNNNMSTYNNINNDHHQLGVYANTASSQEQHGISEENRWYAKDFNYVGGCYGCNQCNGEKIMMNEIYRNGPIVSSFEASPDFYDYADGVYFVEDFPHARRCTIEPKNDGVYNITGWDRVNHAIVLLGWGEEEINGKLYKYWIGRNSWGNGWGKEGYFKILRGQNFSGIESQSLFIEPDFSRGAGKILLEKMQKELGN
Set-up: species or system P. falciparum D10 trophozoite lysates; single well
With `O=C1C(=O)N(CCn2c3ccccc3c3nc4ccccc4nc32)c2ccccc21` the “% Inhibition @ 10 uM” value was 3.91%.
With `Cc1ccc(-c2cc(C(=O)Nc3cc(C)on3)no2)cc1` the “% Inhibition @ 10 uM” value was 3.54%.
`O=C(Nc1ccc(F)c(Cl)c1)c1ccccc1NC(=O)C1CC=CCC1C(=O)O` (centres unmarked) was tested, and the “% Inhibition @ 10 uM” value was 2.48%.
`COc1ccc(-c2csc3ncn(CC(=O)Nc4ccc(Cl)cc4C)c(=O)c23)cc1OC` was tested, and the “% Inhibition @ 10 uM” value was -2.09%.
With `CC(C)(C)c1ccc(C(=O)NC2=NC(=O)CC(c3ccccc3F)N2)cc1` (centres unmarked) the “% Inhibition @ 10 uM” value was 5.1%.
For `O=C(N/C(=C\c1cccc(F)c1)C(=O)N1CC2CC(C1)c1cccc(=O)n1C2)c1ccco1` (centres unmarked), the “% Inhibition @ 10 uM” value was 3.08%.
In the case of `CCn1c(C(=O)NCCCN2CCN(Cc3ccccc3)CC2)cc2sccc21`, the “% Inhibition @ 10 uM” value is reported as -10.5%.
`CCOC(=O)C1=C(C)N=C(SCc2ccc(C(=O)O)cc2)NC1c1ccc(OCC)cc1` (centres unmarked) was tested, and the “% Inhibition @ 10 uM” value was -1.47%.
For `O=C(O)c1ccc(Oc2ccc(NC(=O)C3CC3)cc2)cc1C(=O)O`, the “% Inhibition @ 10 uM” value was 0.635%.
In the case of `O=S(=O)(c1ccccc1)N(CCO)Cc1ccccc1`, the “% Inhibition @ 10 uM” value is reported as -3.25%.
For `CC(=O)c1cc(F)c(N2CCN(C(=O)c3ccc(F)cc3)CC2)cc1C`, the “% Inhibition @ 10 uM” value was 0.214%.
With `COc1ccc(NC(=O)C(Cc2ccccc2)N2C(=O)c3ccccc3C2=O)cc1` (centres unmarked) the “% Inhibition @ 10 uM” value was 2.02%.
`COc1cccc(CN2CCCC(C(=O)N3CCCCCC3)C2)c1OC` (centres unmarked) was tested, and the “% Inhibition @ 10 uM” value was 2.25%.
With `CC(=O)Nc1ccc(NC(=O)Cc2ccccc2F)cc1` the “% Inhibition @ 10 uM” value was -2.09%.
With `CC(=O)c1cccc(NS(=O)(=O)c2ccc(Cl)cc2)c1` the “% Inhibition @ 10 uM” value was -5.94%.
For `CSc1nc(O)c2c(n1)N=C1CC(C)(C)CC(O)=C1C2c1cccs1` (centres unmarked), the “% Inhibition @ 10 uM” value was 2.67%.
With `CCCC(=O)c1c(Nc2ccccc2C)cc(C)oc1=O` the “% Inhibition @ 10 uM” value was 4.57%.
`Cc1[nH]c2ccccc2c1/C=C1\S/C(=N/c2cccc(C(=O)O)c2)N(C)C1=O` was tested, and the “% Inhibition @ 10 uM” value was -9.65%.
`Cc1cc(C)n2nc(CNS(=O)(=O)c3cccc4nsnc34)nc2n1` was tested, and the “% Inhibition @ 10 uM” value was -3.96%.
With `Fc1ccccc1C1NCc2ccccc2-n2cccc21` (centres unmarked) the “% Inhibition @ 10 uM” value was 1.01%.
With `N#Cc1c(NC(=O)CC2Sc3ccccc3NC2=O)sc2c1CCCC2` (centres unmarked) the “% Inhibition @ 10 uM” value was -2.78%.
For `Cc1sc(NC(=O)c2ccc(C(C)(C)C)cc2)c(C#N)c1C`, the “% Inhibition @ 10 uM” value was 3.62%.
With `COc1cc(C)c(S(=O)(=O)NOCc2ccccc2)c(C)c1C` the “% Inhibition @ 10 uM” value was -6.62%.
`Cc1cccc(S(=O)Cc2ccc(C(=O)NCCc3ccccc3)o2)c1` (centres unmarked) was tested, and the “% Inhibition @ 10 uM” value was 2.3%.
`CC1(C)CC(=O)C2=C(C1)OC1=C(C(=O)CC(C)(C)C1)C2c1cc2c(cc1Cl)OCO2` was tested, and the “% Inhibition @ 10 uM” value was -2.97%.
For `Cc1ccccc1NC(=O)CCC(=O)OC1CCC(C(C)(C)C)CC1` (centres unmarked), the “% Inhibition @ 10 uM” value was 4.54%.
For `NC(=O)CS(=O)(=O)c1oc(-c2cccs2)nc1S(=O)(=O)c1ccc(F)cc1`, the “% Inhibition @ 10 uM” value was -1.22%.
In the case of `COc1ccccc1/C=C/CN1CCCC1CO` (centres unmarked), the “% Inhibition @ 10 uM” value is reported as -2.03%.
`O=C(NCc1cccnc1)c1cc(-c2ccccn2)nc2ccccc12` was tested, and the “% Inhibition @ 10 uM” value was 1.07%.
With `CSc1nc(Oc2ccc(C)c(C)c2)cc(-n2nc(C)c(C#N)c2N)n1` the “% Inhibition @ 10 uM” value was 0.121%.
In the case of `COc1ccc(NC(=O)/C(C#N)=C\c2c(C)[nH]c3ccccc23)cc1`, the “% Inhibition @ 10 uM” value is reported as -1.32%.
With `CCOc1ccc(/C=C/C(=O)Nc2ncc(Cc3ccc(C)cc3)s2)cc1` the “% Inhibition @ 10 uM” value was 20.8%.
For `COc1ccc(OC)c(NC(=O)C2C3C4CCC(C4)C23)c1` (centres unmarked), the “% Inhibition @ 10 uM” value was 4.98%.
In the case of `CC1=C(C(=O)Nc2ccccc2)C(c2ccc(Br)cc2)N2C(=O)CSC2=N1` (centres unmarked), the “% Inhibition @ 10 uM” value is reported as 8.19%.
With `COc1ccccc1C1C2=C(O)CCCC2=Nc2ccc3ncccc3c21` (centres unmarked) the “% Inhibition @ 10 uM” value was 2.38%.
For `CC1=CC(C)C2COC(c3cccnc3)C1C2C` (centres unmarked), the “% Inhibition @ 10 uM” value was 5.16%.
With `CCOC(=O)N1CCN(C(=O)C(CC(C)C)NC(=O)C2CCCCC2)CC1` (centres unmarked) the “% Inhibition @ 10 uM” value was -6.5%.
With `CCC(=O)/N=C(\N)Nc1nc(C)c2ccc(C)cc2n1` the “% Inhibition @ 10 uM” value was -2.88%.
With `CCSc1nnc(NC(=O)c2cccs2)s1` the “% Inhibition @ 10 uM” value was -0.034%.
In the case of `N#CC1C(=O)N=C(N2CCN(C(c3ccccc3)c3ccccc3)CC2)NC12CCCCC2` (centres unmarked), the “% Inhibition @ 10 uM” value is reported as -3.33%.
For `CC(C)c1ccc(CNCCCSc2nnnn2-c2ccccc2)cc1`, the “% Inhibition @ 10 uM” value was -1.11%.
With `CC(=O)c1cccc(NC(=O)c2ccc(-c3ccc(Cl)cc3)o2)c1` the “% Inhibition @ 10 uM” value was 15.5%.
`CCOc1cc(C2C3=C(O)CCCC3=NC3=C2C(=O)CCC3)cc(Cl)c1OCC(=O)O` (centres unmarked) was tested, and the “% Inhibition @ 10 uM” value was 2.7%.
With `CC(NC(=O)Cn1cc(C(=O)C2CC2)c2ccccc21)c1ccccc1` (centres unmarked) the “% Inhibition @ 10 uM” value was 3.35%.
`CCOP(=O)(Cc1cccc(C(=O)O)c1)OCC` was tested, and the “% Inhibition @ 10 uM” value was 1.66%.
For `O=C(Nc1ccccc1F)OCC1CCCN2CCCCC12` (centres unmarked), the “% Inhibition @ 10 uM” value was 2.49%.
In the case of `Cc1ccc(C)c(N(CC(=O)Nc2ccccc2)S(C)(=O)=O)c1`, the “% Inhibition @ 10 uM” value is reported as 0.00477%.
With `COc1ccc(C2C(C(=O)Nc3ccccc3)=C(C)N=c3s/c(=C/c4cnn(C)c4C)c(=O)n32)cc1` (centres unmarked) the “% Inhibition @ 10 uM” value was 1.34%.
In the case of `OC(COCc1ccccc1)CN1CCN(c2ccccc2F)CC1` (centres unmarked), the “% Inhibition @ 10 uM” value is reported as -6.2%.
With `Oc1ccc(Br)cc1-c1nc2cc(Cl)cnc2[nH]1` the “% Inhibition @ 10 uM” value was 3.48%.

From paper PMC6919601, “Identification of Plasmodium dipeptidyl aminopeptidase allosteric inhibitors by high throughput screening” (PLoS ONE, 2019)
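Note: 30 min substrate incubation versus DMSO and 10 µM JCP410 controls.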
